Measurements as given in the supplement of paper PMC9151546.
Repeats are few or missing, and single values can be far off.

Legend:
[1] = test system: CHO-K1; test: relative survival (nuclei to bead ratio vs DMSO control) (% of vehicle control); higher = more surviving cells
Protocol: (§1)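 Flow-cytometric in vitro micronucleus assay (Litron MicroFlow) in CHO-K1 cells in 96-well plates, 19 concentrations (4.5-200 µM, n=1 per concentration). Without S9, cells were exposed for 24 h and sampled at 48 h. With Aroclor 1254-induced rat liver S9, cells were exposed for 3-4 h and sampled at 27-28 h. Read-outs are %MN and %hypodiploid nuclei relative to nucleated events, and relative survival as the nuclei-to-bead ratio versus the 1% DMSO vehicle control (x100).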

[2] = test system: CHO-K1; test: hypodiploid nuclei frequency (% of nucleated events); higher = more hypodiploid events (aneugenic)
Protocol: as §1

[3] = test system: CHO-K1; test: micronucleus frequency (% of nucleated events); higher = more micronuclei (genotoxic)
[4] = concentration: 4.5 (µM), S9 metabolic activation: with S9, exposure time: 3-4 hours
[5] = concentration: 4.5 (µM), S9 metabolic activation: without S9, exposure time: 24 hours
[6] = concentration: 5.63 (µM), S9 metabolic activation: with S9, exposure time: 3-4 hours
[7] = concentration: 5.63 (µM), S9 metabolic activation: without S9, exposure time: 24 hours
[8] = concentration: 7.04 (µM), S9 metabolic activation: with S9, exposure time: 3-4 hours
[9] = concentration: 7.04 (µM), S9 metabolic activation: without S9, exposure time: 24 hours
[10] = concentration: 8.8 (µM), S9 metabolic activation: with S9, exposure time: 3-4 hours
[11] = concentration: 8.8 (µM), S9 metabolic activation: without S9, exposure time: 24 hours
[12] = concentration: 11 (µM), S9 metabolic activation: with S9, exposure time: 3-4 hours
[13] = concentration: 11 (µM), S9 metabolic activation: without S9, exposure time: 24 hours
[14] = concentration: 13.7 (µM), S9 metabolic activation: with S9, exposure time: 3-4 hours
[15] = concentration: 13.7 (µM), S9 metabolic activation: without S9, exposure time: 24 hours
[16] = concentration: 17.2 (µM), S9 metabolic activation: with S9, exposure time: 3-4 hours
[17] = concentration: 17.2 (µM), S9 metabolic activation: without S9, exposure time: 24 hours
[18] = concentration: 21.5 (µM), S9 metabolic activation: with S9, exposure time: 3-4 hours
[19] = concentration: 21.5 (µM), S9 metabolic activation: without S9, exposure time: 24 hours
[20] = concentration: 26.8 (µM), S9 metabolic activation: with S9, exposure time: 3-4 hours
[21] = concentration: 26.8 (µM), S9 metabolic activation: without S9, exposure time: 24 hours
[22] = concentration: 33.6 (µM), S9 metabolic activation: with S9, exposure time: 3-4 hours
[23] = concentration: 33.6 (µM), S9 metabolic activation: without S9, exposure time: 24 hours
[24] = concentration: 41.9 (µM), S9 metabolic activation: with S9, exposure time: 3-4 hours
[25] = concentration: 41.9 (µM), S9 metabolic activation: without S9, exposure time: 24 hours
[26] = concentration: 52.4 (µM), S9 metabolic activation: with S9, exposure time: 3-4 hours
[27] = concentration: 52.4 (µM), S9 metabolic activation: without S9, exposure time: 24 hours
[28] = concentration: 65.5 (µM), S9 metabolic activation: with S9, exposure time: 3-4 hours
[29] = concentration: 65.5 (µM), S9 metabolic activation: without S9, exposure time: 24 hours
[30] = concentration: 81.9 (µM), S9 metabolic activation: with S9, exposure time: 3-4 hours
[31] = concentration: 81.9 (µM), S9 metabolic activation: without S9, exposure time: 24 hours
[32] = concentration: 102 (µM), S9 metabolic activation: with S9, exposure time: 3-4 hours
[33] = concentration: 102 (µM), S9 metabolic activation: without S9, exposure time: 24 hours
[34] = concentration: 128 (µM), S9 metabolic activation: with S9, exposure time: 3-4 hours
[35] = concentration: 128 (µM), S9 metabolic activation: without S9, exposure time: 24 hours
[36] = concentration: 160 (µM), S9 metabolic activation: with S9, exposure time: 3-4 hours
[37] = concentration: 160 (µM), S9 metabolic activation: without S9, exposure time: 24 hours
[38] = concentration: 200 (µM), S9 metabolic activation: with S9, exposure time: 3-4 hours
[39] = concentration: 200 (µM), S9 metabolic activation: without S9, exposure time: 24 hours
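For hypodiploid nuclei frequency (% of nucleated events) in this document: hypodiploid nuclei gated on a flow cytometer with 488 nm excitation after SYTOX Green staining, cultures at 37 °C, positive controls vinblastine without S9 and cyclophosphamide with S9.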
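For micronucleus frequency (% of nucleated events) in this document: cells lysed with nuclei stained by SYTOX Green, then micronucleus-gated events counted against nucleated events by flow cytometry with 488 nm excitation.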
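For relative survival (nuclei to bead ratio vs DMSO control) in this document: Lysed-cell nuclei stained with SYTOX Green and counted against counting beads by flow cytometry at 488 nm excitation, with vinblastine (no S9) and cyclophosphamide (plus S9) as positive controls.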

**Q.** Which results are given for `Cc1cc(=O)[nH]c(=S)[nH]1` [6-Methyl-2-thiouracil]?
**A.** relative survival [1, 4]: 127; relative survival [1, 5]: 113; relative survival [1, 6]: 116; relative survival [1, 7]: 109; relative survival [1, 8]: 92.8; relative survival [1, 9]: 104; relative survival [1, 10]: 92.6; relative survival [1, 11]: 90.5; relative survival [1, 12]: 92.8; relative survival [1, 13]: 119; relative survival [1, 14]: 90.4; relative survival [1, 15]: 103; relative survival [1, 16]: 91.1; relative survival [1, 17]: 111; relative survival [1, 18]: 78.1; relative survival [1, 19]: 94.9; relative survival [1, 20]: 153; relative survival [1, 21]: 101; relative survival [1, 22]: 124; relative survival [1, 23]: 89.4; relative survival [1, 24]: 122; relative survival [1, 25]: 130; relative survival [1, 26]: 132; relative survival [1, 27]: 132; relative survival [1, 28]: 120; relative survival [1, 29]: 108; relative survival [1, 30]: 118; relative survival [1, 31]: 116; relative survival [1, 32]: 153; relative survival [1, 33]: 112; relative survival [1, 34]: 140; relative survival [1, 35]: 105; relative survival [1, 36]: 117; relative survival [1, 37]: 131; relative survival [1, 38]: 126; relative survival [1, 39]: 126; hypodiploid nuclei frequency [2, 4]: 0.26%; hypodiploid nuclei frequency [2, 5]: 0.62%; hypodiploid nuclei frequency [2, 6]: 0.16%; hypodiploid nuclei frequency [2, 7]: 0.44%; hypodiploid nuclei frequency [2, 8]: 0.22%; hypodiploid nuclei frequency [2, 9]: 0.58%; hypodiploid nuclei frequency [2, 10]: 0.1%; hypodiploid nuclei frequency [2, 11]: 0.6%; hypodiploid nuclei frequency [2, 12]: 0.18%; hypodiploid nuclei frequency [2, 13]: 0.46%; hypodiploid nuclei frequency [2, 14]: 0.2%; hypodiploid nuclei frequency [2, 15]: 0.66%; hypodiploid nuclei frequency [2, 16]: 0.3%; hypodiploid nuclei frequency [2, 17]: 0.76%; hypodiploid nuclei frequency [2, 18]: 0.24%; hypodiploid nuclei frequency [2, 19]: 0.56%; hypodiploid nuclei frequency [2, 20]: 0.28%; hypodiploid nuclei frequency [2, 21]: 0.82%; hypodiploid nuclei frequency [2, 22]: 0.42%; hypodiploid nuclei frequency [2, 23]: 0.62%; hypodiploid nuclei frequency [2, 24]: 0.24%; hypodiploid nuclei frequency [2, 25]: 0.82%; hypodiploid nuclei frequency [2, 26]: 0.24%; hypodiploid nuclei frequency [2, 27]: 0.62%; hypodiploid nuclei frequency [2, 28]: 0.22%; hypodiploid nuclei frequency [2, 29]: 1.08%; hypodiploid nuclei frequency [2, 30]: 0.34%; hypodiploid nuclei frequency [2, 31]: 0.84%; hypodiploid nuclei frequency [2, 32]: 0.26%; hypodiploid nuclei frequency [2, 33]: 0.98%; hypodiploid nuclei frequency [2, 34]: 0.4%; hypodiploid nuclei frequency [2, 35]: 1.2%; hypodiploid nuclei frequency [2, 36]: 0.56%; hypodiploid nuclei frequency [2, 37]: 1.44%; hypodiploid nuclei frequency [2, 38]: 0.42%; hypodiploid nuclei frequency [2, 39]: 1.4%; micronucleus frequency [3, 4]: 1.38%; micronucleus frequency [3, 5]: 2.52%; micronucleus frequency [3, 6]: 1.58%; micronucleus frequency [3, 7]: 2.14%; micronucleus frequency [3, 8]: 1.24%; micronucleus frequency [3, 9]: 2.46%; micronucleus frequency [3, 10]: 1.4%; micronucleus frequency [3, 11]: 2.84%; micronucleus frequency [3, 12]: 1.38%; micronucleus frequency [3, 13]: 2.34%; micronucleus frequency [3, 14]: 1.34%; micronucleus frequency [3, 15]: 2.8%; micronucleus frequency [3, 16]: 1.54%; micronucleus frequency [3, 17]: 3.5%; micronucleus frequency [3, 18]: 0.96%; micronucleus frequency [3, 19]: 1.92%; micronucleus frequency [3, 20]: 2.44%; micronucleus frequency [3, 21]: 2.56%; micronucleus frequency [3, 22]: 1.8%; micronucleus frequency [3, 23]: 2.46%; micronucleus frequency [3, 24]: 1.58%; micronucleus frequency [3, 25]: 2.9%; micronucleus frequency [3, 26]: 2.24%; micronucleus frequency [3, 27]: 2.64%; micronucleus frequency [3, 28]: 1.96%; micronucleus frequency [3, 29]: 2.92%; micronucleus frequency [3, 30]: 1.64%; micronucleus frequency [3, 31]: 2.96%; micronucleus frequency [3, 32]: 2.02%; micronucleus frequency [3, 33]: 3.86%; micronucleus frequency [3, 34]: 1.68%; micronucleus frequency [3, 35]: 4.16%; micronucleus frequency [3, 36]: 2.9%; micronucleus frequency [3, 37]: 3.72%; micronucleus frequency [3, 38]: 1.5%; micronucleus frequency [3, 39]: 3.72%
